Data from PubChem BioAssay AID651820 (National Center for Advancing Translational Sciences (NCATS), 2012).
The campaign covered roughly 340,000 compounds. About 12,000 (3.5%) were called active. Inconclusive means that the source gave no clear call. Such entries were picked first, then a sample of the others. The call rests on the fitted dose curve; in most records, active means well fitted inhibition curve with a large enough effect; inconclusive means small, poorly fitted or top-dose-only effect, or another doubt; inactive means no such curve, though single readings can be large or run the other way. Potencies of inconclusive entries are left out as doubtful fits.
On the % scale 0 is the no-effect control and ±100 the full control effect; potency means the concentration at half of the fitted maximal effect; tags describe the fitted curve by direction and shape.

Assay: qHTS Assay for Inhibitors of Hepatitis C Virus (HCV)
Conditions: Huh7.5.1 HCVcc-Cre (HCVcc is cell-culture hepatitis C virus) infection, luciferase reporter, 44 h; activity change, negative = inhibition: at 41.8 µM (top of the series) unless noted
In short: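 Cells (1,000/well) were plated 4 h before compound, then infected with HCVcc-Cre virus (~0.5 moi). After 44 h further culture, infection was read as luciferase luminescence following a 15 min substrate incubation at room temperature.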
In the case of `COCc1cc(C)nc(SCC(=O)Nc2ccc3c(c2)OCO3)c1C#N`, the Potency is reported as active: 11.2 µM. In the case of `CCOC(=O)N1CCC(NC(=O)C2CCN(c3nc(-c4ccc(OC)cc4)no3)CC2)CC1`, the Potency is reported as inconclusive [inhibitor, partial curve]. For `CCN=c1scc(C)n1/N=C/c1ccsc1`, the Potency was “inactive”. For `Cc1cc(-c2csc(NC(=O)c3ccc(C#N)cc3)n2)c(C)n1Cc1ccccc1`, the Potency was inconclusive [inhibitor, partial curve]. For `CCOC(=O)c1c(C)[nH]c(C(=O)CSc2nc(C)cc(C)n2)c1C`, the Potency was inconclusive [inhibitor, partial curve]. For `Cn1cc(C(=O)N/N=C/c2ccc(Br)c([N+](=O)[O-])c2)c2ccccc21`, the activity change, negative = inhibition was inconclusive: -30.1% [inhibitor]. With `CN(Cc1ccco1)C(=O)CCc1nc2sc3c(c2c(=O)[nH]1)CCCC3` the Potency was “inactive”. For `Cc1cc(C)c(C)c(OCC(=O)NCC2CCCO2)c1` (configuration not stated), the Potency was “inactive”. In the case of `OC(CSc1ccccc1Cl)CN1CCN(c2ccc(F)cc2)CC1` (configuration not stated), the Potency is reported as inconclusive [inhibitor, single point]. With `O=C(/C=C/c1ccc(F)cc1)c1ccccc1Br` the Potency was inconclusive [inhibitor, single point]. In the case of `CCC(=O)Nc1nc(C)c(-c2csc(Nc3ccc(C(=O)O)cc3)n2)s1`, the Potency is reported as “inactive”. In the case of `CCn1c(SCC(=O)c2ccc3c(c2)OCCO3)nnc1C(C)C`, the Potency is reported as “inactive”. With `O=C(c1ccc(-c2cccc(Cl)c2)o1)N1CCN(c2ccc([N+](=O)[O-])cc2)CC1` the Potency was “inactive”. In the case of `Cc1nc(SCC(=O)NCC2CCCO2)c2c3c(sc2n1)CCCC3` (configuration not stated), the Potency is reported as “inactive”. With `O=C(Nc1nnc(C2CC2)s1)C1CCCO1` (configuration not stated) the Potency was “inactive”. In the case of `O=C(CN1CCc2ccccc21)NCc1ccc2c(c1)OCO2`, the Potency is reported as inconclusive [inhibitor, single point]. For `O=C1NC(=O)C(=Cc2ccc(-c3ccc(F)cc3O)o2)C(=O)N1`, the Potency was “inactive”. In the case of `CN(C)CCCNc1cc(C(C)(C)C)nc2c(-c3ccc(Cl)cc3)cnn12`, the Potency is reported as active: 10 µM. With `CC1CCC(NCCc2ccc3c(c2)OCO3)CC1` (configuration not stated) the Potency was inconclusive [inhibitor, single point]. In the case of `CCOc1ccc(OCC)c(NC(=O)C2COc3ccccc3O2)c1` (configuration not stated), the Potency is reported as inconclusive [inhibitor, single point]. For `CC(C)(C=O)C1=CC(=O)c2ccccc2C1=O`, the Potency was active: 7.08 µM. In the case of `OC(COc1ccc2cc(Br)ccc2c1)CN1CCN(c2ccccn2)CC1` (configuration not stated), the Potency is reported as inconclusive [inhibitor, single point]. In the case of `Cc1ccccc1NC(=O)c1sc(NC(=O)C2CC2)nc1C`, the Potency is reported as inconclusive [inhibitor, single point]. For `CC(C)Oc1ccccc1NC(=O)CSc1nc2ccccc2c(=O)n1C`, the Potency was inconclusive [inhibitor, single point]. For `COc1ccc(/C(C)=N/NC(=O)c2cccc(S(=O)(=O)N3CCCC3)c2)c(O)c1`, the Potency was active: 3.16 µM. In the case of `CCOC(=O)c1ccc(NC(=O)CC2Sc3ncnn3C2=O)cc1` (configuration not stated), the Potency is reported as inconclusive [inhibitor, single point]. For `COc1ccccc1N1CCN(C(=O)c2cccc3c(=O)c(C)c(-c4ccccc4)oc23)CC1`, the Potency was inconclusive [inhibitor, single point]. With `CCCNC(=O)C(=O)NCCC1=CCCCC1` the Potency was “inactive”. With `CCOC(=O)/C=C/C(=O)Nc1ccc(S(=O)(=O)Nc2c(C)cc(C)cc2C)cc1` the Potency was “inactive”. With `CC1CCCCN1C(=O)c1cc2nc(-c3ccccc3)cc(-c3ccccc3)n2n1` (configuration not stated) the Potency was active: 11.2 µM. In the case of `COc1ccc(C=NNC(=O)c2ccccc2OCc2ccc(F)cc2)c(OC)c1`, the Potency is reported as inconclusive [inhibitor, single point]. For `O=[N+]([O-])c1cc([N+](=O)[O-])c(Oc2cccc3ccccc23)cc1NN1CCCCC1`, the Potency was “inactive”. With `CCOc1ccccc1CNC(=O)c1cc2oc3ccccc3c2n1C` the Potency was inconclusive [inhibitor, full curve]. For `C/C(=N\NC(=O)Cn1ccc(C(F)(F)F)n1)c1ccc2c(c1)OCO2`, the Potency was “inactive”. For `C#Cc1ccc([C@@H]2C=C(C(=O)O)O[C@H](OCc3ccc(CO)cc3)C2)cc1`, the Potency was inconclusive [inhibitor, single point]. For `CCOC(=O)C1=C(c2ccccc2)NC(SC)=C(C#N)C1c1ccco1` (configuration not stated), the Potency was inconclusive [inhibitor, single point]. In the case of `COc1ccc2nc3oc(C(=O)NC4CCN(Cc5ccccc5)CC4)cc3cc2c1`, the Potency is reported as inconclusive [inhibitor, partial curve, poor fit]. For `O=C1COc2ccc(S(=O)(=O)CCC(=O)N3CCN(c4cccc(C(F)(F)F)c4)CC3)cc2N1`, the Potency was inconclusive [inhibitor, partial curve]. For `Cc1cc(C)c(C#N)c(Nc2cccc(Br)c2)n1`, the Potency was inconclusive [inhibitor, partial curve, poor fit]. For `COc1ccc(Nc2oc(-c3ccco3)nc2S(=O)(=O)c2ccc(F)cc2)cc1`, the Potency was inconclusive [inhibitor, single point]. With `COC(=O)[C@]1(CC(C)C)N[C@H](c2ccc(-c3cccc(Cl)c3)cc2)[C@@H]2C(=O)N(C)C(=O)[C@@H]21` the Potency was inconclusive [inhibitor, full curve]. In the case of `CCN1CCN(c2ncnc3c2cnn3-c2ccc(Cl)cc2)CC1`, the Potency is reported as inconclusive [inhibitor, single point]. For `N#CCc1ccc(NC(=O)c2ccc(CN3CCc4ccccc4C3)cc2)cc1`, the Potency was active: 2 µM. In the case of `O=C(NNC1=NCCCCC1)Nc1ccc(Cl)cc1`, the Potency is reported as “inactive”. In the case of `COc1ccc2cc(C(=O)OC(C)C)sc(=O)c2c1OC`, the Potency is reported as inconclusive [inhibitor, partial curve]. In the case of `COc1cccc(NC(=O)c2cc(-c3ccc(C)o3)nc3ccccc23)c1`, the Potency is reported as inconclusive [inhibitor, full curve]. In the case of `CC(=O)Nc1ccc(Oc2nc(-c3ccccn3)nc3ccccc23)cc1`, the Potency is reported as inconclusive [inhibitor, partial curve].
